Data published in paper PMC6919601, “Identification of Plasmodium dipeptidyl aminopeptidase allosteric inhibitors by high throughput screening” (PLoS ONE, 2019).
Hit rate of the full screen: of about 110,000 compounds, about 230 (0.21%) showed an effect of 50% or more. Some of the results follow.

Molecular target: DPAP1 (Plasmodium falciparum, UniProt Q8IIJ9)
Test: primary screen, percent inhibition; read by cleavage of a fluorogenic dipeptide substrate; higher = more effect of the substance
Parameters: species or system P. falciparum D10 trophozoite lysates; single well
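Also: 30 min substrate incubation versus DMSO and 10 µM JCP410 controls.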

Sequence of DPAP1 (Q8IIJ9 whole entry, looked up): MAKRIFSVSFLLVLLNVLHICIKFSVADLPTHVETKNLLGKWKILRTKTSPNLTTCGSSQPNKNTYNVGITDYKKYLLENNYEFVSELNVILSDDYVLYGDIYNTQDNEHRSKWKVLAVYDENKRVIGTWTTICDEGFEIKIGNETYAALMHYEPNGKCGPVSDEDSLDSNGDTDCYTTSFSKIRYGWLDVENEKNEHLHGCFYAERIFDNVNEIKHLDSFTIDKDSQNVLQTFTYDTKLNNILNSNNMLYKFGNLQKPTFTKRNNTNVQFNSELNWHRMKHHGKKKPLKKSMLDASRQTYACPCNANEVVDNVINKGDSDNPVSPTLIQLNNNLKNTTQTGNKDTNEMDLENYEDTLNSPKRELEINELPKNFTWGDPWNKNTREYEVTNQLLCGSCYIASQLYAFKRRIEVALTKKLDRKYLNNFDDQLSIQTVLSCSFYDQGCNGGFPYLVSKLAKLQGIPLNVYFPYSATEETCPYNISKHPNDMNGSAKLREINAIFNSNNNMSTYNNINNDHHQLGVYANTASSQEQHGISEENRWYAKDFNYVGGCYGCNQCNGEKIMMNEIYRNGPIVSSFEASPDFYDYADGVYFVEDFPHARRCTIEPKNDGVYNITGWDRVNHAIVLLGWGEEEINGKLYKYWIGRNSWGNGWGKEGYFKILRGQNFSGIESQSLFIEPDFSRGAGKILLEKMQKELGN

Structure (SMILES) | % Inhibition @ 10 uM [%]
Cc1nn2c3ccccc3n(CC(=O)c3ccc(Br)cc3)c2nc1=O | 0.324
O=S(=O)(c1ccc(-c2csc(Nc3ccc(Cl)cc3)n2)cc1)N1CCCC1 | -3.79
CC(C)C(C(=O)Nc1nc2ccccc2s1)N1C(=O)c2ccccc2C1=O (stereo not shown) | 0.331
Cc1nc2cc(C(=O)O)ccc2n1C1CCCCC1 | 4.54
O=[N+]([O-])c1ccc(C2Nc3ccccc3C(c3ccccc3)(c3ccccc3)O2)s1 (stereo not shown) | -4.01
COc1ccc(CCNC(=O)c2cccc3c2C(=O)N(C2CCCCC2)C3)cc1OC | -4.69
Cc1cc(C)c2c(n1)nn1c(C)c(CCC(=O)NC(C)c3cccs3)c(C)nc21 (stereo not shown) | -2.67
CC(Sc1nc(-c2ccccc2)cc(C(F)(F)F)n1)C(=O)NCc1cccnc1 (stereo not shown) | -3.92
COc1ccc(Cl)cc1NC(=O)CN(c1ccc(OC)c(OC)c1)S(C)(=O)=O | -7.09
N#Cc1ccccc1Cn1c(=O)n(Cc2ccc(C(=O)NCc3ccco3)cc2)c(=O)c2sccc21 | -9.28
COc1cccc(C(=O)N2CCN(Cc3ccccc3F)CC2)c1 | 0.0504
CCOc1ccc(C2c3c(oc4ccc(F)cc4c3=O)C(=O)N2Cc2ccc3c(c2)OCO3)cc1 (stereo not shown) | -5
CC1(C)CC2=Nc3nc(-c4ccccc4)nn3C(c3ccccc3)C2=C(O)C1 (stereo not shown) | 2.36
CCN(CC)CCN(CC)Cc1ccccc1 | 0.0792
O=C(CN1C(=O)c2cccc3cccc(c23)C1=O)N1CCCC1 | -1.2
COc1ccc(NC(=O)CNS(=O)(=O)c2cc(Cl)ccc2Cl)cc1OC | 7.67
O=C(NCc1ccc(F)cc1)C1CCN(S(=O)(=O)c2ccc3[nH]c(-c4ccccc4)nc3c2)CC1 | 3.08
N#CCNC(=O)[C@H](CS(=O)(=O)Cc1ccccc1)NC(=O)N1CCOCC1 | -5.04
Cc1cc(C)cc(NC(=O)c2cnccn2)c1 | 2.02
Cc1cc(/N=C2/C=C(O)CC(C)(C)C2)[nH]n1 | 1.91
Cc1ccccc1N(CC(=O)NC(C)(C)C)S(C)(=O)=O | -1.32
CCOC(=O)Nc1ccc2c(c1)Nc1ccccc1[S+]2O (stereo not shown) | 3.06
Cc1ccc(N2C(=O)C(Cl)=C(Nc3ccc(F)cc3)C2=O)cc1 | -3.63
CCN(CC)CCN(C)Cc1c(F)cccc1F | 4.68
O=C(CCC(=O)N1Cc2ccccc2Oc2ncccc21)NCCc1ccc(Cl)cc1 | 7.7
CCSc1nc2c(cc1C#N)CCC2 | -4.94

Structure (SMILES) | % Inhibition @ 10 uM [%]
O=[N+]([O-])c1ccc2c(c1)C1C=CCC1C(c1ccc(Br)cc1)N2 (stereo not shown) | -4.11
O=C(Nc1cc(Cl)c(Cl)cc1Cl)C1CCN(S(=O)(=O)c2ccccc2)CC1 | -3.41
CCCCCCn1c(=O)c(C(=O)Nc2ccc(Cl)cn2)c(O)c2ccccc21 | 3.05
CCCOc1ccc(C2CC(=O)NC3=C2C(=O)CC(c2ccc(OC)c(OC)c2)C3)cc1 (stereo not shown) | 3.11
COc1nc(-c2ccccc2)ccc1-c1noc(-c2cccs2)n1 | -5
Cc1ccc(S(=O)(=O)N2CCN(C(=O)c3ccccc3F)CC2)cc1 | -5.2
COc1ccc(CCNC(=O)CSc2nnc(-c3ccncc3)o2)cc1OC | 2.95
Cc1nn(C(=O)C23CC4CC(CC(C4)C2)C3)c(C)c1Sc1ccccc1 | 2.76
Cc1ccnc(NC(=O)COc2ccccc2C)c1 | 0.843
Cn1nc(/C=C\c2ccccc2)nc2c(=O)n(C)c(=O)nc1-2 | -4.64
Cc1ccc(CCNC(=O)c2cc(-c3ccc(Br)cc3)[nH]n2)cc1 | 2.45
CCN(CCN(C)C)Cc1ccccc1Cl | -2.34
Cc1cccc(OCCCn2ccnc2)c1 | -4.08
CC(C)Cc1nnc(NC(=O)c2nc(S(C)(=O)=O)ncc2Cl)s1 | -6.5
COC(=O)c1ccc(CN2C[C@@H]3C[C@H](C2)c2cccc(=O)n2C3)cc1 | -1.85
Cc1ccc2nc3c(O)n(CC(=O)NCCCOC(C)C)ncc-3c2c1 | 1.92
Cc1cc(=O)oc2c1c(C)nn2-c1cccc(Br)c1 | -1.25
O=C(Nc1ccc2ccccc2c1)c1cccnc1Cl | 6.77
CC(=O)N(Cc1ccccc1)C1CCCc2c1[nH]c1ccc(C)cc21 (stereo not shown) | 9
CC1CC(C)(C)NC(=S)N1CC(=O)N1CCN(Cc2ccc3c(c2)OCO3)CC1 (stereo not shown) | 2.73
CCc1c(C)sc(NC(=O)COc2ccc(Cl)cc2Cl)c1C(N)=O | -1.22
COC(=O)c1cc2c(=O)n3cc(C)ccc3nc2n(Cc2cccnc2)c1=N | -3.27
Cc1cc(C)c2c(=O)n(CC(=O)NCc3ccccc3Cl)sc2n1 | 83.7
CCCC(=O)Nc1ccc2nc(SCC(=O)N3CCN(c4ccccc4)CC3)sc2c1 | -0.99
CCNc1nc(SCCOc2ccc(Cl)cc2Cl)nc(N(C)C)n1 | -3.96
N#CC1=C(N)OC2=C(C(=O)CCC2)C1C1CCCCC1 (stereo not shown) | -6.7

Structure (SMILES) | % Inhibition @ 10 uM [%]
O=C(O)Cn1nnc2sc3c(c2c1=O)CCCC3 | -1.18
CC(=O)c1c(NCc2ccccc2)nc(=O)n(-c2ccccc2)c1C | 0.937
N#CC1=C(SCc2ccccc2)NC(=O)C(C#N)C12CCCCC2 (stereo not shown) | -0.597
COc1ccc(C2=NC3(CCN(C(=O)NC4CCCCC4)CC3)N=C2SC)cc1 | -4.13
CC(Cc1ccccc1F)N1CCN(c2ccc(F)cc2)CC1 (stereo not shown) | -5.31
Cc1cccc(N2C(=O)NC(=O)/C(=C/Nc3ccc4[nH]c(C)nc4c3)C2=O)c1 | 1.01
CCc1ccc(C(=O)/C=C/c2ccc(F)cc2)cc1 | -6.2
Cc1c(C(=O)NCC(C)C)sc2nc(-c3ccc(F)cc3)cn12 | -5.58
COc1cccc(OC)c1C(=O)N(Cc1nc(-c2cccc(C)c2)no1)C(C)C | -6.23
CN(CC(=O)Nc1sc2c(c1C#N)CCCC2)S(=O)(=O)c1ccccc1 | 4.01
Cn1c(=O)n(C)c2cc(/C=C3/SC(=O)N(CC(=O)Nc4ccc(Cl)cc4)C3=O)ccc21 | 15.2
Cc1cccc(C(=O)Nc2ccc(C)c(C)c2)c1 | 0.827
CC(=O)c1cccc(Nc2cc(C)nc3ccc(C)cc23)c1 | -14.4
CCC(CC)C(=O)Nc1ccccc1C(N)=O | -6.4
O=C(NC1CCCc2ccccc21)c1ccc2nc(N3CCOCC3)sc2c1 (stereo not shown) | -2.37
CCn1c(C(C)NC(=O)Cc2ccccc2)nc2ccccc21 (stereo not shown) | 6.01
CCNC(=O)OC(CC)C12CC3CC(CC(C3)C1)C2 (stereo not shown) | -0.712
CCC1C(=O)NC(=O)N(c2ccccc2)C1=O (stereo not shown) | -7.11
CC(C)Oc1ccc(C(=O)C2=C(O)C(=O)N(Cc3cccnc3)C2c2ccc(O)cc2)cc1 (stereo not shown) | 3.81
Cn1cccc1/C=C1\CN(Cc2ccccc2)C/C(=C\c2cccn2C)C1=O | -5.51
O=Cc1ccccc1OCCOc1ccccc1C=O | 16.9
O=CN1CCN(C2CC3CCC2C3)CC1 (stereo not shown) | 4.55
O=C(CCc1ccccc1)NC1(C(F)(F)F)N=C(c2ccccc2)NC1=O (stereo not shown) | -4.91
CCOc1ccccc1NC(=O)c1ccc(N(C)C)cc1 | -2.17
C#CC(C)(C)N1CCC(O)(c2ccccc2)C(C)C1 (stereo not shown) | 4.66
O/N=C1/C2CCC1C(N1CCCCC1)CC2 (stereo not shown) | 4.89

Structure (SMILES) | % Inhibition @ 10 uM [%]
Cc1cc(C)c(C#N)c(Nc2cccc3ccccc23)n1 | -6.68
O=C(NC1CCCCCCC1)C1CCN(c2c(N3CCCC3)c(=O)c2=O)CC1 | 3.3
CCOC(=O)C1=C(C)NC(=O)CC1c1cccc(Oc2ccccc2)c1 (stereo not shown) | 7.62
CC(=O)NC1C(OCc2ccccc2)OC(CO)C(O)C1O (stereo not shown) | -3.58
Cc1cc(C)n2nc(NC(=O)C3CCCCC3)nc2n1 | 0.401
CCOC(=O)c1cnc2c(ccc3ccccc32)c1Cl | 9.39
CCc1ccc(OCC(=O)Nc2ccc(OC)c3ccccc23)cc1 | -2.62
O=C(NCCc1ccc(S(=O)(=O)N2CCCC2)cc1)c1cccs1 | 0.503
Cc1ccc(/C(O)=C/c2nc3ccccc3nc2O)o1 | 0.919
Clc1ccc(OCCn2cnc3ccccc32)cc1 | -1.99
CCCC(=O)Nc1ccc2nc(SCC(=O)Nc3nccs3)sc2c1 | 2.38
Cc1ccnc2c(NCN3C(=O)C4C5C=CC(C5)C4C3=O)cccc12 (stereo not shown) | 2.36
Cc1n[nH]c2c1C1(CC(C)N(C)C[C@H]1C)C(C#N)=C(N)O2 (stereo partly shown) | -1.42
CC(O)CN(CCC(C)c1ccccc1)CC(C)O (stereo not shown) | -1.5
Cc1nc2[nH]c(-c3cccs3)nc2cc1Br | 2.58
CC1CCN(S(=O)(=O)c2ccc3c(ccn3CC(=O)NCCC3=CCCCC3)c2)CC1 | 0.359
Cc1ccc(OC(C)C(=O)Nc2ccccc2O)cc1 (stereo not shown) | -2.76
Cc1ccc2nc(NCc3cccnc3)c(/C=N\Cc3cccnc3)c(=O)n2c1 | -4.93
Cc1sc(-c2ccncc2)nc1-c1c[nH]c2ccccc12 | -0.185
CCc1c(C#N)c(N)nc(SCC(=O)c2ccc(-c3ccccc3)cc2)c1C#N | 2.55
CCOc1ccc(C2=CC(=O)C(C(C)=O)CC2)cc1 (stereo not shown) | 3.1
c1ccc(-c2cc(-c3cc(-c4ccccc4)on3)no2)cc1 | -2.42
CCOc1ccccc1/C=C1\C(=O)C2CCN1CC2 | 2.44
O=C1C(c2ccncc2)=C(O)c2ccccc21 | 0.00178
CC(NC(=O)CNC(=S)N(Cc1cccs1)C1CCCC1)c1ccccc1 (stereo not shown) | -7.73
